Screen size: about 46,000 compounds; about 60 (0.1%) were called active. Not shown: some 3% with an inconclusive outcome. The call rests on the fitted dose curve; in most records, active means well fitted inhibition curve with a large enough effect; inconclusive means small, poorly fitted or top-dose-only effect; inactive means no such curve, though single readings can be large or run the other way. Some of the results follow.
Assay: Primary qHTS assay for Inhibitors of ovarian cancer metastasis using an organotypic tumor microenvironment (TME) model. Further: nearly all actives have a fitted effect of over 65% in size.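 On activity change, negative = inhibition: plate controls were DMSO wells for no effect and tomatine positive control wells for full effect.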
Details: SKOV3ip1-GFP adhesion/invasion on 3D omental model, fluorescence; series mostly up to 45.8 µM; activity change, negative = inhibition: at the top concentration
Procedure, shortened: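 Primary human omental fibroblast/mesothelial 3D culture pre-formed 48 h. SKOV3ip1-GFP cells added with compounds (0.36-46 umol/L), incubated 2 h RT/16 h 37 C, fixed; GFP cells quantified at 488/509 nm.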

Activity change, negative = inhibition, inactive:
Cc1cc2c(cc1S(=O)(=O)N(C)CC(=O)Nc1cccc(C#N)c1)OCC(=O)N2 -8.76%
CCOC(=O)N1CCc2c(sc3c2c(=O)n(-c2ccc(Cl)cc2)c(=O)n3Cc2cccc(C)c2)C1 -7.62%
Cn1c(=O)oc2cc(S(=O)(=O)N3CCCC(C(=O)N4CCN(c5ccccc5F)CC4)C3)ccc21 (configuration not stated) 9.23%
CCOCCCNC(=O)c1c[nH]c2ccc(S(=O)(=O)Nc3cccc(Cl)c3C)cc2c1=O 2.11%
Cc1ccccc1Nc1cc(C(=O)NC2CCCCC2)c2ccccc2n1 1.79%
Fc1ccc(Nc2ncnc3c2nc2n3CCCC2)cc1 14.5%
Cc1c(NC(=O)c2ccccc2)cc(C(C)C)c(O)c1S(=O)(=O)c1ccc(Cl)cc1 -5.47%
CCOCCCn1c(SCC(=O)NCCCOC)nc2c(sc3ccccc32)c1=O -14.6%
Cc1ccc(CCNc2ncnc3onc(C)c23)cc1 -7.31%
COc1ccccc1N1CCN(S(=O)(=O)c2cc3[nH]c(=O)c(=O)[nH]c3cc2C)CC1 0.498%
CCOc1ccc(CNC(=O)CCC(=O)N2CCSc3ccccc32)cc1 2.52%
Cc1ccc2occ(CC(=O)N(Cc3ccc(N(C)C)cc3)C3CCS(=O)(=O)C3)c2c1 (configuration not stated) -24.3%
CCN(CC)C(=O)C1CCCN(c2ncnc3onc(C)c23)C1 (configuration not stated) 0.974%
Cc1ccc(Cl)cc1N(C)C(=O)c1cnc(N2CCOCC2)c2ccccc12 -1.82%
CCc1cccc(NC(=O)CN2CCCN(Cc3cccc(C)c3)S2(=O)=O)c1 3.64%
COc1ccc(NC(=O)N2CCc3c([nH]c4ccc(OC)cc34)C2c2ccc(OC)cc2)cc1 (configuration not stated) -11.5%
COc1ccc2nc(N3CCN(C(=O)C4CC4)CC3)sc2c1 -0.0512%
CC(NC(=O)c1sc2ncccc2c1-n1cccc1)c1ccccc1 (configuration not stated) -19.8%
COc1cccc(-c2nc3c(C#N)c[nH]n3c2NC2CCCCC2)c1OC -12.6%
COc1cc(Nc2c(C#N)cnc3cc(OCCCN4CCN(C)CC4)c(OC)cc23)c(Cl)cc1Cl 7.29%
Cc1ccc(Cn2c(=O)n(CC3CCC(C(=O)N4CCOCC4)CC3)c(=O)c3sccc32)cc1 (configuration not stated) -8.52%
O=C(NCC(c1cccnc1)N1CCN(Cc2ccccc2)CC1)C(=O)Nc1cccc(F)c1 (configuration not stated) -3.56%
CCOC(=O)CC(NC(=O)Cn1nnc(-c2ccc(C(F)(F)F)cc2)n1)c1ccc(C)cc1 (configuration not stated) -2.91%
O=C(CC1Oc2ccc(Cl)cc2NC1=O)NCc1ccccc1 (configuration not stated) -7.3%
Cc1ccc(S(=O)(=O)N2CCCc3cc(NC(=O)c4ccccc4Cl)ccc32)cc1 -6.75%
COc1ccc(CCNC(=O)CCCCCn2c(SCC(N)=O)nc3cc4c(cc3c2=O)OCO4)cc1OC -8.44%
Cc1ccc(C)c(N(C)C(=O)C2CCN(c3ncnc4c3nc3n4CCCCC3)CC2)c1 6.74%
CCN(CC)S(=O)(=O)c1nnc(NC(=O)COc2cccc(C)c2)s1 -3.9%
O=C(Nc1c(C(=O)c2ccc(F)cc2)oc2ccccc12)c1cc(-c2ccccc2)on1 -4.08%
COc1ccc(NC(=O)N(Cc2nnc3n2CCCCC3)c2ccc(OC)c(Cl)c2)cc1 10%
CCc1ccc(S(=O)(=O)c2c(C(=O)c3ccc(C)c(C)c3)cnc3ccccc23)cc1 -0.492%
CCOc1ccc(CNC(=O)c2ccc3nc(CC)c(CC)nc3c2)cc1OC -27.5%
CCn1c(=O)cc(OCC(=O)Nc2cc(OC)c(OC)c(OC)c2)c2ccccc21 -4.62%
CN(C)c1ccc(CNC(=O)c2ccc(NC(=O)c3nsc4ccccc34)cc2)cc1 1.95%
CCC12CN3CC(C)(CN(C1)C3c1c(C)n(C)c3ccccc13)C2=O (configuration not stated) -5.11%
CC(C)C1N=C2c3ccccc3N=C(SCC(=O)NCc3ccc(F)cc3)N2C1=O (configuration not stated) 4.94%
Cc1cccc(NC(=O)Cn2c(=O)n(CCc3ccccc3)c(=O)c3sc4ccccc4c32)c1 3.09%
CCC1(c2ccccc2)C(=O)NCNC1=O 2.48%
Cc1ccc(Nc2cc(-c3cccc(N4C(=O)c5ccccc5C4=O)c3)ncn2)cc1NS(C)(=O)=O -12%
Cc1cccc(CNC(=O)c2ccc3nc(-c4ccccc4)c(-c4ccccc4)nc3c2)c1 -2.99%
Cc1c(C(=O)NCc2ccccc2Cl)cccc1-n1cnc2cccnc21 19.2%
Cc1cccc(C)c1OCc1nc2c3cnn(-c4ccccc4Br)c3ncn2n1 -7.62%
COc1cc(NC(=O)c2cc(C3CC3)nc3c2c(C)nn3-c2ccc(C)cc2)cc(OC)c1 -16%
Nc1c(-c2nc(-c3ccc(Cl)cc3)no2)nnn1-c1ccc(C(F)(F)F)c(Cl)c1 8.69%
CCOC(=O)Cn1c(=O)n(C2CCCCC2)c2nc(-c3ccccc3Cl)nc(C(N)=O)c21 -3.35%
O=C(CSc1nc2c([nH]c3ccccc32)c(=O)n1-c1ccc(F)cc1)N1CCCc2ccccc21 -7.05%
CCC(CC)C(=O)Nc1nnc2n1CCS2 10.4%
COc1ccc(-c2c(C)nn3c(-c4ccccc4)cc(-c4ccccc4)nc23)cc1OC -0.725%
COc1ccc(CCN2C(=O)c3[nH]nc(-c4ccccc4O)c3C2c2ccc(O)c(OC)c2)cc1 (configuration not stated) 2.58%
CCOC(=O)CC(NC(=O)c1cc2c(=O)n3cccc(C)c3nc2s1)c1ccc(OCC(C)C)c(OC)c1 (configuration not stated) 2.44%
COc1ccc2c(c1)c1c(c(=O)n(-c3ccc(F)c(Cl)c3)c(=O)n1Cc1ccccc1F)n2C -4.44%
COC(=O)c1c(-c2ccc(Cl)cc2)noc1N1CCN(c2ccccc2F)CC1 3.03%
CCOC(=O)C1=C(CN(CC)Cc2ccccc2)NC(=O)NC1c1ccc(OC)cc1 (configuration not stated) 10%
O=C1CN(C(=O)c2cccc(Br)c2)C(c2ccccc2)c2cc(Cl)ccc2N1 (configuration not stated) -11%
N#Cc1c(-n2ncnc2-c2cccc(Cl)c2)sc2c1CCCCC2 -6.93%
COc1ccccc1NC(=O)C(=O)c1cc(C)n(-c2cc(C)cc(C)c2)c1C -13.7%
O=C(CNS(=O)(=O)c1ccc(Br)s1)N1CCN(c2ccc(F)cc2)CC1 -9.94%
COc1ccc(Cl)cc1NC(=O)C(=O)NCc1ccc(Cl)cc1 1.56%
CC(C)(C)c1ccc(C(=O)NC2=NC(c3cccc(F)c3)CC(=O)N2)cc1 (configuration not stated) 2.02%
Cc1cc(C)c2oc(C(=O)NCCc3ccc(S(N)(=O)=O)cc3)cc(=O)c2c1 -3.06%
Cc1cccn2c(=O)cc(COc3ccc(NC(=O)COc4ccc(F)cc4)cc3)nc12 6.64%
COc1ccc2c(c1)c1c(c(=O)n(Cc3ccccc3)c(=O)n1CC(=O)Nc1ccccc1F)n2C 1.38%
Cc1ccc(OC(=O)CSc2nnc(-c3ccc4c(c3)OCO4)o2)c(C)c1 30%
COc1cccc(-c2nc3c(c(SCC(=O)Nc4cccc(C)c4C)n2)Cc2c(CO)cnc(C)c2O3)c1 10.4%
Cc1ccc(C(=O)c2sc(Nc3ccc(F)cc3)c(C#N)c2N)cc1 -3.18%
COc1cccc(NC(=O)CN2C=NS(=O)(=O)c3ccccc32)c1 2.98%
O=C(O)CCc1ccc(-c2ccc(Br)cc2)n1-c1ccccc1O -18.8%
COc1ccc(-c2nc3sc(CCNC(=O)C(C)(C)C)c(C)n3n2)cc1 -8.64%
CCOCCCNC(=O)c1ccc(-c2nc(CS(=O)(=O)c3ccccc3)c(C)o2)cc1 9.53%
CNC(=O)C1CCCN(c2nnc(C)c3c(C)n(-c4ccccc4)nc23)C1 (configuration not stated) -2.64%
CCOc1cccc2sc(N(Cc3cccnc3)C(C)=O)nc12 2.08%
O=C(Nc1ccc(F)c(Cl)c1)c1cc(S(=O)(=O)NCc2ccc3c(c2)OCO3)ccc1F 1.92%
Cc1cc2nc(-c3ccc(NC(=O)c4ccc(OCC(C)C)cc4)cc3)oc2cc1C 3.56%
CC(C)Cc1nn2cc(-c3cccc(Br)c3)nc2s1 36.1%
CCOc1ccc(N2CC(c3nc4ccccc4n3CCOc3ccc(OC)cc3)CC2=O)cc1 (configuration not stated) -25.5%
CCOc1ccc2nc(N3CCCC(C(=O)NCCc4ccc(OC)cc4OC)C3)sc2c1 (configuration not stated) -1.7%
CCCCN(CC)CCNC(=O)Cn1cnc2sc(C)c(S(=O)(=O)N3CCN(c4ccccc4OC)CC3)c2c1=O 2.27%

outcome, inactive:
O=C(NCCS(=O)(=O)N1CCN(c2ccc(F)cc2)CC1)c1cc(=O)c2ccccc2o1
COc1ccc(N2CCN(C(=O)c3ccc4nc(N5CCC(C)CC5)sc4c3)CC2)cc1
COC(=O)c1cc2oc3ccccc3c2n1Cc1c(F)cccc1Cl
CCN(CC)S(=O)(=O)c1ccc2c(c1)N(CC(=O)Nc1ccc(F)cc1)C(=O)CO2
Cn1cnc(S(=O)(=O)N2CCCC(C(=O)Nc3cccc(C#N)c3)C2)c1 (configuration not stated)
COc1cccc(N2CCN(c3ccc4nnc(CCC(=O)O)n4n3)CC2)c1
COCCNC(=O)CSc1nc2ccccc2nc1Cc1ccc(C)cc1
COc1cccc(Cc2nc3ccccc3nc2SCC(=O)Nc2ccccc2F)c1
O=C(Cn1c(=O)n(-c2ccccc2)c(=O)c2c3c(sc21)CCCC3)Nc1cccc(F)c1
COC(=O)c1ccc(NC(=O)CCNS(=O)(=O)c2cccc3nsnc23)cc1
O=C(NC1CCCCC1)c1cc(Nc2ccccc2)nc2ccccc12
CCCCNC(=O)c1ccc2c(c1)NC(=O)C(C(C)C)N2 (configuration not stated)
CCOc1cccc(-c2nc3ccccc3c(=O)o2)c1
COCCNS(=O)(=O)c1cc(-c2nn3c(C)nnc3c3ccccc23)ccc1C
Cc1ccc(NC(=O)N2CCN(C(=O)c3nsc4ccccc34)CC2)cc1C
CCS(=O)(=O)NCCc1sc2nc(-c3ccc(OC)cc3)nn2c1C
CCOC(=O)c1cnc(NCc2ccc(OC)cc2OC)c2ccccc12
CCOc1ccccc1NC(=O)N1CC(C)Oc2ccc(Cl)cc21 (configuration not stated)
Cc1cccc(CCn2c(=O)c3ccccc3n(Cc3ccccc3C)c2=O)c1
CCOC(=O)C1CCN(c2cc3c(cc2NC(=O)c2ccccc2Cl)n(C)c(=O)n3C)CC1

From PubChem BioAssay AID1963576 (National Center for Advancing Translational Sciences (NCATS), 2024)
